Source: PubChem BioAssay AID1159614 (National Center for Advancing Translational Sciences (NCATS), 2016)
The whole screen tested about 45,000 compounds, of which about 65 (0.1%) were called active. Calls come from the whole dose curve; as a rule, active = well fitted activation curve with a large enough effect; inconclusive = small, poorly fitted or top-dose-only effect; inactive = no such curve, though single readings can be large or run the other way. Some of the results follow.

Biological target: Galactocerebrosidase (Homo sapiens) (UniProt P54803)
UniProt P54803, sequence (P54803 whole entry, looked up): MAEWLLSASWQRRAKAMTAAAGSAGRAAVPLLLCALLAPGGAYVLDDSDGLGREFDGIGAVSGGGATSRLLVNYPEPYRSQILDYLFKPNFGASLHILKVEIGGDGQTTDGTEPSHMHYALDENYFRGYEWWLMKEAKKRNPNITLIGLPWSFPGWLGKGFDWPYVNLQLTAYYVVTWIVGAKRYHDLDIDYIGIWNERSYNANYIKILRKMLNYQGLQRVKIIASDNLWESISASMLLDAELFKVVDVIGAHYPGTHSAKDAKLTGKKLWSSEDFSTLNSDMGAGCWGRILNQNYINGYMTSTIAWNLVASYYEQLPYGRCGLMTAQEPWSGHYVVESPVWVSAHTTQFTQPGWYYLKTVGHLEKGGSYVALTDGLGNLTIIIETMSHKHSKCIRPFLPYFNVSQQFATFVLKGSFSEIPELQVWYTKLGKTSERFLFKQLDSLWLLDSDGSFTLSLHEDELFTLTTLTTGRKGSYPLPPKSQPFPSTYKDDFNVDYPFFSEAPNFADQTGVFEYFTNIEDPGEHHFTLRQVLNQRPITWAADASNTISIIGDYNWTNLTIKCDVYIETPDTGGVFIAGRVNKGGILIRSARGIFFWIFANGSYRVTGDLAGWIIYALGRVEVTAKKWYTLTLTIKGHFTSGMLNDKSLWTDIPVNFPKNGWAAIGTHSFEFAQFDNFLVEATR
Assay: A Novel Cell-Based Assay to Identify Small Molecules for B -Galactocerebrosidase; note: 0% is about no effect; nearly all actives have a fitted effect of over 65% in size
Conditions: 145M-Twi-hGALC-G270D cells (Twitcher mouse brain line with human GALC G270D), HMU-beta-Gal fluorescence, 48 h; series mostly up to 57.5 µM; activation: at the top concentration
In short: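 Mutant human GALC (G270D), stably expressed in a Twitcher mouse brain cell line lacking endogenous GALC, is measured in live-treated cells via 6-hexadecanoylamino-4-methylumbelliferyl-β-galactoside hydrolysis (0.1 mM final, pH 5.2) with fluorescent detection.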

activation, inactive:
Cc1ccccc1CN1CCc2nc(N3CCN(c4ncccn4)CC3)ncc2C1 -12.5%
Cc1ccc(CNC(=O)c2ccc(CS(=O)(=O)Cc3ccc(F)cc3)o2)cc1 -12.2%
CCCCc1nn2c(=O)cc(COC(=O)c3cccc(NC(=O)c4cccc(Cl)c4)c3)nc2s1 -4.78%
COc1ccc(CCCc2nnc(SCC(=O)Nc3cccc(C)c3)o2)cc1C -18.7%
O=C(Nc1ccc(F)cc1F)c1cccc2c1C(=O)N(C1CCCCC1)C2 -9.14%
Cc1cccc(CSc2nc3c(c(=O)[nH]2)CCC3)c1 -7.81%
COCCNc1ccc(-c2nc(-c3ccncc3)no2)cc1[N+](=O)[O-] -6.33%
COc1cccc(-n2c(SCC(=O)N3CCc4ccccc43)nc3c([nH]c4ccccc43)c2=O)c1 9.99%
COc1cc(NC(=O)CSc2nc(-c3cccs3)cc(C(F)(F)F)n2)cc(OC)c1OC -10.6%
COc1ccc(-c2cc(C(F)(F)F)nc(SCC(=O)N3CCCCC3)n2)cc1OC -10.1%
COc1ccc(-c2nc(SCC(=O)Nc3ccccc3)c(-c3ccc(F)cc3)[nH]2)cc1OC -15%
CCc1cccc(C)c1NC(=O)C(CC)n1nc(C)c2c(C)n(-c3ccccc3)nc2c1=O (centres undefined) -22.4%
CCS(=O)(=O)N1CCc2cc(C(=O)N3CCN(c4ccc(OC)cc4)CC3)ccc21 -18.3%
COc1ccc(OC)c(S(=O)(=O)N2Cc3ccccc3CC2C(=O)Nc2ccc(C)cc2C)c1 (centres undefined) -3.9%
CCc1ccc(C2CC(=O)c3c([nH]c(C(=O)OC4CCC(C)CC4)c3C)C2)cc1 (centres undefined) -23.9%
CNC(=O)c1ccc2nc(CCc3ccccc3)oc2c1 -13.5%
COc1ccc(S(=O)(=O)NCc2cccn2Cc2cccc(C)c2)cc1Cl -40.9%
COc1ccc(NC(=O)c2cc(C(C)=O)n3ccccc23)cc1 -17.4%
COc1ccc(NC(=O)c2oc3ccc(S(=O)(=O)N4CCCCC4)cc3c2C)cc1Cl -15.5%
Cc1ccc2c(c1)C(=O)C(=O)N2Cc1ccc(OCCC(C)C)cc1 -38.6%
Cc1ccc2nc(NC(=O)c3nc(SCc4ccccc4F)ncc3Cl)sc2c1 -14.7%
COCCn1c(=O)[nH]c2cc(C(=O)N3CCN(c4ccc(Cl)cc4)CC3)ccc2c1=O 0.883%
Cc1ccc(CN2CCC(CNC(=O)c3cnn(-c4ccccc4)c3C3CCN(C(=O)OC(C)(C)C)CC3)CC2)cc1 -13%
Cc1nc(-c2ccc(Cl)cc2)sc1CCNC(=O)C(=O)Nc1ccc2c(c1)OCCO2 -0.41%
O=C(CSc1nc(=O)n(Cc2cccnc2)c2c1CCC2)Nc1cccc(Cl)c1 -9.73%
O=C(O)c1ccc(NCc2nc3ccccc3n2CCOc2ccccc2Cl)cc1 -6.77%
CSc1ncc(Cl)c(C(=O)Nc2cc(C(F)(F)F)ccc2Cl)n1 -12.4%
CCOc1cc2[nH]c(=O)n(Cc3ccc(C(=O)N4CCN(c5ccccc5)CC4)cc3)c(=O)c2cc1OCC 0.739%
COc1cc2c(=O)n(Cc3ccco3)c(=O)n(CC(=O)Nc3ccc(F)cc3)c2cc1OC 7.23%
COc1ccc(CNC(=O)CC(C)n2nc(C)cc2C)cc1 (centres undefined) -19.9%
COc1ccc(N2CC(NC(=O)C(=O)c3c[nH]c4ccccc34)CC2=O)cc1 (centres undefined) -10.2%
CCN(CC)c1cc(C)c2cc(NC(=O)/C=C/c3ccccc3Cl)ccc2n1 -5.32%
Cc1ccc(-c2nn(-c3ccc(F)cc3F)c3c2cnc2ccc(F)cc23)cc1 -7.15%
CCOC(=O)N1CCC(NC(=O)c2cnn(-c3ccc(F)cc3)c2-n2cccc2)CC1 -3.18%
COc1ccc(N(C)C(=O)c2nn(-c3ccc(C)cc3)c(=O)n(C)c2=O)c(OC)c1 -14.4%
Cc1cc(C)cc(NC(=O)N2CCC(C(N)=O)(N3CCCCC3)CC2)c1 -15.4%
CCCCn1cc(S(=O)(=O)c2ccccc2)c(=O)c2cc(F)c(N3CCN(CCC)CC3)cc21 -7.46%
CCN1c2ccccc2-n2cccc2C12CCN(C(=O)Nc1ccccc1Br)CC2 -6.53%
CC1CCCN(c2ncnc3c2cnn3-c2ccc(F)cc2)C1 (centres undefined) -13.6%
CCOCCn1ccc2c(OCC(=O)NCc3ccc(F)cc3)cccc2c1=O -14.6%
O=C(CSc1ncc2c(n1)-c1cc(Cl)ccc1N(Cc1ccccc1)S2(=O)=O)Nc1ccc(F)cc1F 3.23%
O=c1c(N2CCN(c3ccccc3)CC2)csc2ccc(Cl)cc12 -5.76%
CC(C)Oc1ccc(C(=O)N2CCN(c3nc4c(F)cc(F)cc4s3)CC2)cc1 -15.7%
O=C(CCSCc1cccc(Cl)c1)NCc1ccccc1Cl -7.61%
COc1ccc(NC(=O)CSC2=Nc3ccccc3C3=NC(CC(=O)NCc4ccccc4OC)C(=O)N23)cc1Cl (centres undefined) -19.5%
COc1ccc(-c2nc3c4ccccc4n(CC(=O)Nc4ccc(C(C)C)cc4)c(=O)n3n2)cc1 2.33%
Cc1ccccc1-n1c(SCC(=O)Nc2ccc(Cl)cc2Cl)nc(O)cc1=O 3.79%
COc1ccc(C2CC(=O)N(Cc3ccccc3C)c3c2c(C)nn3-c2nc(C)cc(C)n2)c(OC)c1 (centres undefined) -12.6%
COc1ccc(-c2noc(-c3ccc(N4CCN(C)CC4)c([N+](=O)[O-])c3)n2)cc1 -9.49%
COc1ccc(S(=O)(=O)c2c(O)c(C)cc(NS(=O)(=O)c3ccc(Cl)cc3)c2C(C)C)cc1 -10%
Cc1cccc(N(C)S(=O)(=O)c2ccc(-c3cc(C)no3)s2)c1 -26.4%
CC(=O)N1CCc2c(sc3c2c(=O)n(-c2ccc(F)cc2)c(=O)n3Cc2cc(C)ccc2C)C1 -13.8%
Cc1ccc(S(=O)(=O)N2CCc3cc(C(=O)N(C)Cc4ccccc4)ccc32)cc1 -10.7%
CCc1sc(Nc2cccc(C)c2)nc1-c1cc2cccc(OC)c2oc1=O -9.32%
OCCOCCN1CCN(C2=Nc3ccccc3Sc3ccccc32)CC1 -8.88%
COc1cc(C(=O)N2CCN(CCc3ccncc3)CC2)cc(OC)c1OC -8.73%
COc1cccc(-n2c(=O)c3c(C)c(C(=O)N(C)C)sc3n(Cc3cccc(C)c3)c2=O)c1 4.94%
CCc1cc(S(=O)(=O)O)c2cc(C(C)C)cccc1-2 -9.19%
COc1ccc(CCN2CCC(CNC(=O)c3cnn(-c4ccc(C)cc4)c3C3CCN(C(=O)OC(C)(C)C)CC3)CC2)cc1 -9.08%
COc1ccc(-c2nc(C)c(CCNC(=O)C(=O)Nc3ccccc3F)s2)cc1 -11.5%
Cc1ccc(NC(=O)Cn2c(=O)n(CC3CCC(C(=O)NC(C)C)CC3)c(=O)c3sccc32)cc1 (centres undefined) -6.54%
COc1ccccc1-n1nc(-c2ccccc2)c2cnc3c(F)cc(F)cc3c21 -3.37%
COc1ccc(C(CNC(=O)COc2cc(C)cc(C)c2)N2CCCCC2)cc1 (centres undefined) -6.87%
Cc1ccc2c(CC(=O)Nc3c(C(=O)c4ccc(F)cc4)oc4ccccc34)coc2c1 -14.3%
CCN(c1ccccc1)S(=O)(=O)c1ccc(NC(=O)c2cc(=O)c3ccc(C)c(C)c3o2)cc1 -15.4%
COc1ccc(CCNC(=O)CS(=O)Cc2nc(-c3ccc(C)cc3)oc2C)cc1OC (centres undefined) -20.8%
O=C(CCSCc1ccc(Cl)cc1)N1CCN(c2ccccc2F)CC1 -8.65%
CC(NC(=O)C1CCN(C(=O)N2CCOc3ccc(Cl)cc32)CC1)c1ccccc1 (centres undefined) -6.27%
CCC(=O)OCc1cnc(C)c2oc(=O)c(C(=O)Nc3ccc(CC)cc3)cc12 -10.5%
Cn1cc(C(=O)[C@@H]2CCc3nc[nH]c3C2)c2ccccc21 -22.1%
COc1ccc(N2CCN(C(=O)c3nn(C)c4c3CS(=O)(=O)c3ccccc3-4)CC2)cc1 -7.75%
COc1ccc(-c2nc3c(c(SCc4cc(C)ccc4C)n2)Cc2c(CO)cnc(C)c2O3)cc1 -10.8%
CCOc1ccc2oc(=O)cc(CN3CCN(C(=O)c4cccc(F)c4)CC3)c2c1 -7.22%
Cc1cccc(C(=O)O)c1O -9.08%
CCCN(CCC)CCNC(=O)Cn1ncc2c([nH]c3ccc(C)cc32)c1=O -8.42%
COc1ccccc1Nc1nn2c(=O)c3ccc(C(=O)Nc4ccc(F)cc4)cc3nc2s1 -36.6%
NC(=O)c1cc(S(=O)(=O)NCc2ccc(Br)cc2)cs1 -9.8%
CCOC(=O)c1ccc(NC(=O)CCc2c(C)n(CC)c3cc(-c4ccccc4OC)nn3c2=O)cc1 -17%
CCOC(=O)c1[nH]c(C)c(CCC(=O)NCc2ccc(C)cc2)c1C -13.2%
CCc1cccc(-n2c(=O)c3cccnc3n2CC(=O)NCc2ccccc2Cl)c1 -14.6%
Oc1cccc(-c2c3nc(c(-c4cccc(O)c4)c4ccc([nH]4)c(-c4cccc(O)c4)c4nc(c(-c5cccc(O)c5)c5ccc2[nH]5)CC4)C=C3)c1 -30.1%
COc1ccc(N2CCN(C(=O)c3ccc(NC(=O)c4nsc5ccccc45)cc3)CC2)cc1 -12.3%
O=C(/C=C\c1ccc2c(c1)OCO2)NC1CC(=O)N(c2ccc(F)cc2)C1 (centres undefined) -6.17%
CCOCCCNC(=O)c1cc2c(=O)n3ccccc3nc2s1 -21%
CC1CCN(S(=O)(=O)c2cc(C(=O)NCCc3ccccc3)n(C)c2)CC1 -26.6%
CC(C)(C)c1ccc(C(=O)Nc2cc(-c3ccccc3)nn2-c2ccccc2)cc1 2.18%
Cc1ccc(C)c(N2CCN(C(=O)c3cc4cc5ccc(C)cc5nc4s3)CC2)c1 -16.1%
CC1CCN(C(=O)CSc2nc3c([nH]c4ccccc43)c(=O)n2-c2ccccc2)CC1 4.88%
Cc1ccc(CSc2oc(-c3ccco3)nc2S(=O)(=O)c2ccc(Br)cc2)cc1 -11.1%
O=C(CN1CCN(c2ccc(Cl)cc2)CC1)Nc1ccc(Cl)c(C(F)(F)F)c1 -13.9%
Cc1ccc(CNC(=O)CCn2ccc3cc(S(=O)(=O)N4CCCC4)ccc32)cc1 -19.5%
Cc1ccc(CNc2nc3c(S(=O)(=O)c4ccc(C)c(C)c4)nnn3c3ccc(Cl)cc23)cc1 -7.28%
CCOc1ccc(-n2c(=O)c3c4c(sc3n(Cc3cc(=O)n5cc(Cl)ccc5n3)c2=O)CCC4)cc1 -13.3%
CCc1ccc(NC(=O)Cn2c(=O)n(Cc3nc(C)no3)c(=O)c3cc4c(cc32)OCO4)cc1 -24.4%
